# According to PubChem BioAssay AID686979 (National Center for Advancing Translational Sciences (NCATS), 2013):
# Values joined by “and” are separate entries in the source; they are usually repeats but may differ in a detail not shown here. Equal values may be shown once. Out of some 420,000 compounds screened, about 50,000 (12%) were called active. This list was built around the results that the source calls inconclusive (neither active nor inactive); the mix of calls is not that of the screen. Calls come from the whole dose curve; as a rule, active = well fitted inhibition curve with a large enough effect; inconclusive = small, poorly fitted or top-dose-only effect; inactive = flat fitted curve, though single readings scatter. Potencies of inconclusive entries are left out as doubtful fits.
# Test: qHTS for Inhibitors of human tyrosyl-DNA phosphodiesterase 1 (TDP1): qHTS in cells in presence of CPT; note: nearly all actives have a fitted effect of over 55% in size
# Conditions: chicken DT40 Tdp1-/-;hTDP1 cells + 20 nM CPT, ATP luminescence, 48 h; activity change, negative = growth inhibition: at 46.2 µM (top of the series) unless noted
# Summary of the method: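 Chicken DT40 Tdp1-/- cells complemented with human TDP1, 400 cells/well, exposed to compounds plus 20 nM camptothecin for at least 48 h at 37 C; viability read as ATP content by CellTiter-Glo luminescence.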
# % is set by controls: 0 for no effect and ±100 for the full control effect; potency is the fitted concentration of half-maximal effect; tags give direction and shape of the fitted curve.
SMILES,Potency,"activity change, negative = growth inhibition"
Cc1ccc(C(=O)Nc2cccnc2)cc1S(=O)(=O)N1CCCCC1,"inconclusive [inhibitor, single point]",
COC(=O)[C@H]1[C@H](c2ccccc2)[C@H](C(=O)OC)O[C@H]1c1ccccc1,inactive,
CCOc1cc(C(=O)N(C)c2ccccc2)cc(OCC)c1OCC,"inconclusive [inhibitor, partial curve]",
COc1cccc(-n2nnc3c(=O)n(Cc4ccc(Cl)cc4)cnc32)c1,"inconclusive [inhibitor, single point]",
Cc1ccc2nc(CN3CCN(C(=O)Nc4ccc(F)cc4)CC3)oc2c1,"inconclusive [inhibitor, single point]",
Cc1ccc2cc(CCNC(=O)c3ccc4c(c3)OCO4)c(=O)[nH]c2c1C,active: 20.6 µM,
Cn1c(=O)c(C(=O)CCl)c(N)n(CC2CC2)c1=O,active: 23.1 µM,
Brc1ccc(NC2=Nc3ccccc3CC2)cc1,"inconclusive [inhibitor, single point]",
O=C1[C@H]2[C@@H](c3ccc(C(F)(F)F)cc3)N[C@]3(CCCN(CC4CCCCC4)C3=O)[C@H]2C(=O)N1Cc1ccccc1,active: 23.1 µM,
CCCN(CCC)Cc1cc2ccccc2c2c1COC2,"inconclusive [inhibitor, single point]",
O=S(=O)(c1ccc2ccccc2c1)N1CCCCCC1,inactive,
O=C1C=C(c2ccc(O)cc2)C[C@@H](c2ccc3c(c2)OCO3)C1,"inconclusive [inhibitor, single point]",
Cc1cc(=O)oc2c3c(cc(OCC(=O)Nc4ccc(CCO)cc4)c12)OC(C)(C)CC3,"inconclusive [inhibitor, single point]",
NC(=O)c1ccsc1NC(=O)COC(=O)c1ccccc1F,inactive,
CSCCC1NC(=O)C(C(C)=NNC(N)=O)=C1O (stereo not given),"inconclusive [inhibitor, single point]",
CC(C)CN(CC(C)C)S(=O)(=O)N1CCC(C(=O)NCCc2ccc(Cl)cc2)CC1,"inconclusive [inhibitor, single point]",
CCOc1ccc2[nH]c3c(NCCOC)ncnc3c2c1,"inconclusive [inhibitor, single point]",
Nc1nnc(SCC(=O)Nc2sc3c(c2C(=O)c2ccccc2)CCCC3)s1,"inconclusive [inhibitor, partial curve]",
Cn1cccc1C1Nc2ccccc2NC2=C1C(=O)CC(C)(C)C2 (stereo not given),"inconclusive [inhibitor, single point]",
CCC1Nc2ncnc(N3CCN(c4ccccc4)CC3)c2N(Cc2ccc(C)cc2)C1=O (stereo not given),"inconclusive [inhibitor, single point]",
COC(=O)C1=CN(c2ccc(OC)cc2)C=C(C(=O)OC)C1c1ccc([N+](=O)[O-])cc1,"inconclusive [inhibitor, partial curve]",
O=C(NCCCN1CCCC1=O)c1ccccc1OCc1ccc(Cl)cc1Cl,"inconclusive [inhibitor, partial curve, poor fit]",
COCCNc1ncnc2ccc(-c3ccoc3)cc12,"inconclusive [inhibitor, single point]",
NC(=O)c1nsc(C(=O)N(Cc2ccccc2Cl)C(C(=O)NCC2CCCO2)c2ccc(O)cc2)c1N (stereo not given),inactive,

SMILES,Potency,"activity change, negative = growth inhibition"
O=S(=O)(c1cccc(COc2ccc(Cl)cc2Cl)c1)N1CCOCC1,"inconclusive [inhibitor, single point]",
CCCS(=O)(=O)N1CCc2ccc(NC(=O)C3CCCO3)cc2C1 (stereo not given),,inconclusive: -31.3% [inhibitor]
O=C(CCl)Nc1ccc(Sc2ccc(NC(=O)CCl)cc2)cc1,"inconclusive [inhibitor, full curve, poor fit]",
CC1CCC(C(C)C)C(OC(=O)COC(=O)c2cccn2C)C1 (stereo not given),inactive,
C/C(=N\Nc1ccc(S(N)(=O)=O)cc1[N+](=O)[O-])c1cccs1,inactive,
CCOC(=O)c1c(NC(=O)c2cc(-c3ccccc3OC)on2)sc(C)c1C,inactive,
COc1ccc(N(Cc2nnc3n2CCCCC3)C(=O)Nc2ccccc2)cc1,"inconclusive [inhibitor, full curve, poor fit]",
CC1=C(C(=O)Nc2cccnc2)C(c2ccc(F)cc2)n2nc(-c3cccc(C)c3)nc2N1 (stereo not given),"inconclusive [inhibitor, single point]",
CCCN1CCN(CCCNC(=O)c2ccc3nc(N4CCC(C)CC4)sc3c2)CC1,inactive,
C=CCn1c(SC)nc2sc3c(c2c1=O)CCc1ccccc1-3,"inconclusive [inhibitor, single point]",
Cc1cc(C)c2nc(N(Cc3cccnc3)C(=O)CCS(=O)(=O)c3ccccc3)sc2c1,active: 4.61 µM,
CCOC(=O)C1=C(C)NC(C)=C(C(=O)OCC)C1c1ccncc1,"inconclusive [inhibitor, single point]",
O=C1c2ccccc2C(=O)c2cc(NC(=O)C3CC3)ccc21,"inconclusive [inhibitor, single point]",
Cc1cc(NC(=O)C2CCN(S(=O)(=O)c3c(C)noc3C)CC2)ccc1Br,"inconclusive [inhibitor, single point]",
O=C(CN1C(=O)COc2ccccc21)Nc1ccccc1F,inactive,
O=[N+]([O-])c1ccc2c(c1)Cc1cc(F)ccc1-2,inactive,
Cc1cccc(-c2cc(C(=O)NCc3ccccn3)c3ccccc3n2)c1,active: 16.4 µM,
CCOC(=O)c1sc(-c2cccc(C(F)(F)F)c2)nc1O,"inconclusive [inhibitor, single point]",
CCc1ccc2oc(C(=O)NCC(c3ccc(OC)cc3)N3CCCCC3)c(C)c2c1 (stereo not given),active: 20.6 µM and active: 23.1 µM,
O=C(CN1CCSC1=NCc1ccccc1)c1ccc(Cl)c(Cl)c1,"inconclusive [inhibitor, single point]",
COc1ccc(Nc2nc(C(=O)NCc3ccco3)cs2)cc1,active: 23.1 µM,
CCOc1ccc(-c2cn3c(n2)sc2cc(C(=O)NCCCN4CCCCCC4)ccc23)cc1,active: 5.8 µM,
CS(=O)(=O)Nc1c(O)ccc2c1CCCC2C1=NCCN1 (stereo not given),inactive,
CCN(CC)C(=O)[C@H]1C[C@H](CC(=O)NC/C=C(\C)CCC=C(C)C)C(=O)N2CCc3c([nH]c4ccc(Cl)cc34)[C@]12C,"inconclusive [inhibitor, single point]",

SMILES,Potency,"activity change, negative = growth inhibition"
CCOc1ccc(S(=O)(=O)N2CCOCC2)cc1NC(=O)c1ccccc1F,inactive,
CCOC(=O)c1c(NC(=O)CS(=O)(=O)c2cn(CC)c3ccccc23)sc2c1CCCCC2,active: 20.6 µM,
CCc1nnc2n1N=C(c1cccc([N+](=O)[O-])c1)CS2,inactive,
Cc1ccc(-c2cc(N)nc(-c3ccccc3)c2)cc1,"inconclusive [inhibitor, single point]",
COc1cccc(CC2(CO)CCN(S(=O)(=O)c3ccc(OC)cc3OC)CC2)c1,"inconclusive [inhibitor, partial curve]",
N#C/C(=C\c1ccccc1[N+](=O)[O-])C(=O)NC1CCCCC1,"inconclusive [inhibitor, single point]",
CCOC(=O)C1=C(COC(=O)CCOc2cccc(C)c2)NC(=O)NC1C (stereo not given),"inconclusive [inhibitor, single point]",
COc1cc(C(=O)OCC(=O)Nc2cccc(S(=O)(=O)N3CCCC3)c2)ccc1OCC(C)C,"inconclusive [inhibitor, single point]",
COc1cc2cc(C#N)c(SCC(=O)OC(C)C)nc2cc1OC,"inconclusive [inhibitor, single point]",
COc1cc2[nH]c(=O)n(CCC(=O)N3CCN(Cc4ccc5c(c4)OCO5)CC3)c(=O)c2cc1OC,"inconclusive [inhibitor, single point]",
Fc1cnc(N2CCN(c3ccccc3)CC2)nc1N1CCN(c2ccccc2)CC1,"inconclusive [inhibitor, partial curve, poor fit]",
CCc1nnc(NC(=O)CCS(=O)(=O)c2ccccc2)s1,active: 25.9 µM,
NS(=O)(=O)c1ccc(NC(=O)COC(=O)C2(c3ccccc3F)CCCC2)cc1,"inconclusive [inhibitor, single point]",
O=C(NCC(=O)N1CCN(c2ncccn2)CC1)c1ccc(F)cc1,inactive,
O=C(NCc1ccco1)/C(=C/c1ccc(F)cc1)NC(=O)c1ccccc1,inactive,
CCc1ccc(OCC(=O)Nc2ccc3c(c2)c2ccccc2n3CC)cc1,"inconclusive [inhibitor, partial curve]",
O=C(Nc1ccccc1)C1=C[C@@H](c2ccc(C(F)(F)F)cc2)C[C@@H](OCc2ccc(CO)cc2)O1,active: 23.1 µM,
Cc1ccnc(NS(=O)(=O)c2ccc(NC(=O)C3COc4ccccc4O3)cc2)n1 (stereo not given),"inconclusive [inhibitor, single point]",
CCOc1ccc(S(=O)(=O)N(CC(=O)N2CCC(C(N)=O)CC2)c2ccc(F)cc2)cc1,inactive,
O=C1CC(c2c(F)cccc2Cl)C2=C(COC2=O)N1 (stereo not given),inactive,
COc1ccc(Nc2nc(-c3sc(C)nc3C)cs2)c(OC)c1,active: 6.51 µM,
CN1CCN(CCCCOc2ccccc2-c2ccccc2)CC1,"inconclusive [inhibitor, single point]",
